# Results: PubChem BioAssay AID1240 (Sanford-Burnham Center for Chemical Genomics, 2008)
# About 800 (1.6%) of roughly 50,000 compounds showed an effect of 50% or more. The list shows a part of the results.
# Molecular target: Bcl-2-like protein 10 (Homo sapiens) (UniProt Q9HD36)
# Test: TR3 peptide-Bcl-B binding displacers, biochemical primary FP assay, phenotype converters (AID 1240);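 further: 0% = Bcl-B with tracer peptide and DMSO and 100% = tracer peptide lacking Bcl-B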
# Settings: GST-Bcl-B / FITC-TR3 peptide fluorescence polarization; stronger effect = higher value; compound at 3.75 mg/L
# Sequence of UniProt Q9HD36 (Q9HD36 whole entry, looked up): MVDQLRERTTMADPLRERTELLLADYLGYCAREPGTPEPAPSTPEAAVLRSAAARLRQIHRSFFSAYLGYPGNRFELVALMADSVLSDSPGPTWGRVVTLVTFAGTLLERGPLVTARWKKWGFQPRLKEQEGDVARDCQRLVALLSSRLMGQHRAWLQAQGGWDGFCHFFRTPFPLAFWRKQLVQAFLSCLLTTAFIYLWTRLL
row,SMILES,displacement
1,CSc1ccc(S(=O)(=O)N(CC(=O)Nc2cccc(Br)c2)c2ccc(C)cc2)cc1,12.6%
2,COc1ccc(OC)c(NC(=O)C2C3CCC(C3)C2C(=O)O)c1 (stereo unspecified),15.9%
3,CC1=C(C(=O)OCCc2ccccc2)C(c2cccc(Cl)c2)CC(=O)N1 (stereo unspecified),3.9%
4,COc1ccc(C(=O)c2c(C)oc3c2cc(OC)c2ccccc23)cc1,-4.9%
5,COc1cccc(OC)c1C(=O)NNC(=O)c1cccc(Cl)c1,-5.4%
6,CCCOC(=O)c1ccc(NC(=O)C(c2ccccc2)c2ccccc2)cc1,3.5%
7,O=C1C=CC(=NS(=O)(=O)c2ccc(F)cc2)C=C1,-9.6%
8,CC1=C(C#N)C(c2cc3c(cc2[N+](=O)[O-])OCO3)C2=C(CC(C)(C)CC2=O)N1 (stereo unspecified),-1.9%
9,COc1ccc(N(CC(=O)NCCSc2nc3ccccc3s2)S(=O)(=O)c2ccccc2)c(OC)c1,10.6%
10,Cc1ccc(NC(=O)c2ccc(CN(c3ccccc3)S(C)(=O)=O)cc2)cc1Cl,-14.3%
11,CN(C)c1ccc(/C=C/C=C2/SC(N)=NC2=O)cc1,-17.2%
12,CCOC(=O)c1c(N2C(=O)C3CC(C)=C(C)CC3C2=O)sc2c1CCCC2 (stereo unspecified),-13.4%
13,N#CC1=C(SCC(=O)Nc2ccc(Cl)cc2)NC(=O)CC1c1ccccc1Cl (stereo unspecified),-6.5%
14,O=[N+]([O-])c1cccc(N/N=C/c2ccc3c(c2)OCO3)c1,-11.3%
15,O=S(=O)(Oc1ccccc1)c1ccc(F)cc1,-1.2%
16,CCn1cc(C(=O)O)c(=O)c2cc(-c3ccco3)ccc21,18.2%
17,Cc1sc2nc(SCC(=O)NCc3ccco3)[nH]c(=O)c2c1C,-10.3%
18,O=C1c2ccc(-c3nc4ccccc4o3)cc2C(=O)N1CC1CCCO1 (stereo unspecified),11.1%
19,CCOc1cc(/C=N/NC(=O)c2ccncc2)ccc1OC(=O)c1ccco1,6.5%
20,CCC(=O)Nc1cc(-c2nc3ncccc3o2)ccc1C,-1.8%
21,O=C(NC(=S)Nc1ccc(NC(=O)c2ccco2)cc1)c1ccc(Cl)cc1,-16.3%
22,COc1cccc(C(=O)Nc2sc(C)c(C)c2C(N)=O)c1,5.8%
23,O=C1c2ccccc2-c2onc3ccc(Cl)c1c23,40.4%

row,SMILES,displacement
1,COc1ccc(CC(=O)N2CCN(c3ccccc3)CC2)cc1OC,9%
2,CC(=O)c1c(N2CCCCC2)nc(=S)n(-c2ccccc2)c1C,0.5%
3,CC(C)CC(=O)N1CCN(CCCc2ccccc2)CC1,5.5%
4,CCOc1ccccc1C(=O)Nc1cc(C(F)(F)F)ccc1Cl,1.5%
5,Clc1ccc(C2NN=C(c3ccccc3)S2)cc1 (stereo unspecified),0%
6,C#Cc1cccc(NC(=O)CN2C(=O)c3ccccc3C2=O)c1,-4.5%
7,O=C(N/N=C/c1ccc2c(c1)OCO2)c1sc2cc(Cl)ccc2c1Cl,8.9%
8,CC(C)CCN(CCC(C)C)C(CO)(CO)CO,-4.2%
9,Cc1cccc(NS(=O)(=O)c2ccc(Cl)cc2)n1,-10.3%
10,CC1CCCCN1C(=O)/C=C/c1ccc(F)cc1 (stereo unspecified),6.3%
11,COc1ccc2c(=O)c(-c3ccccc3OC)coc2c1,11.8%
12,O=C(NCCOc1ccccc1F)c1ccccc1SCc1ccc(F)cc1,-5.2%
13,O=C(NCCO)c1ccc(CSc2nc3sc4c(c3c(=O)[nH]2)CCCC4)cc1,7.3%
14,O=C(COc1ccc(Br)cc1)NCc1ccc(F)cc1,4.6%
15,O=C(c1ccccc1Cl)N1N=C(c2ccccc2)CC1(O)C(F)(F)F (stereo unspecified),-3.3%
16,Nn1c(-n2nc(-c3ccccc3)cc2-c2ccccc2)n[nH]c1=S,-20.2%
17,CC1CCc2cc(F)ccc2N1C(=O)COc1ccc(Cl)cc1 (stereo unspecified),-15.3%
18,Clc1ccccc1C=Nc1ccc(-c2nnc(-c3ccccc3)o2)cc1,14.5%
19,CC(C)(Oc1ccc(CCNC(=O)c2ccc(-c3ccc(Cl)cc3)o2)cc1)C(=O)O,-7.6%
20,COc1ccc(/C=C/C(=O)N2CCC(C)CC2)cc1Br,13.2%
21,COC(=O)c1ccccc1NC(=O)CN(c1ccc(C)cc1)S(=O)(=O)c1ccc(SC)cc1,-4.5%
22,COc1ccc(CC(=O)Nc2cccc(-c3nc4ccccc4s3)c2)cc1OC,0.3%
23,COc1ccc(C(=O)Nc2cccc(NC(=O)c3ccccc3Br)c2)cc1[N+](=O)[O-],4.7%

row,SMILES,displacement
1,COc1ccccc1/C=C/C(=O)c1ccc(F)cc1,-0.2%
2,CCOc1ccc(-c2nc3cc(NC(=O)c4cccc([N+](=O)[O-])c4C)ccc3o2)cc1,5.3%
3,O=[N+]([O-])c1ccc(N2CCCC2)c(Cl)c1N1CCCC1,4.2%
4,O=c1c2c([nH]n1-c1ccccc1)CCC2,-1.6%
5,Cc1cccc(-n2c(C)cc(/C=C3/SC(=O)NC3=O)c2C)c1,-10.9%
6,CCOC(=O)c1cccc(NC(=O)C(C)Oc2ccc(Cl)cc2C)c1 (stereo unspecified),3.8%
7,COc1ccc(OC)c(N(CC(=O)Nc2cc(C)cc(C)c2)S(C)(=O)=O)c1,13.6%
8,O=C1c2cccc3cccc(c23)C(=O)N1CC1CCN(S(=O)(=O)c2cccs2)CC1,11.7%
9,COc1ccc(/C=C2\C(=O)N(c3ccc(S(N)(=O)=O)cc3)N=C2C)cc1Br,-14%
10,C=CCN1C(=O)/C(=C\C(C)=C\c2ccccc2)SC1=S,19.4%
11,O=C(O)c1c2c(nc3ccccc13)CCCCC2,-0.9%
12,CCOC(=O)/C(=C\Nc1ccc(F)c(F)c1)[N+](=O)[O-],-4.8%
13,C(#CC12CC3CC(CC(C3)C1)C2)CN1CCOCC1,-3.1%
14,O=C(CN(c1cccc([N+](=O)[O-])c1)S(=O)(=O)c1ccccc1)Nc1ccccc1Br,-0.5%
15,CC(=O)Nc1ccc(S(=O)(=O)N2c3ccccc3C(C)=CC2(C)C)cc1,27.5%
16,CC(=O)Nc1sc2c(c1C(=O)Nc1ccc(Br)cc1)CCCC2,22.4%
17,COc1ccc(CNC(=O)c2ccc(F)cc2)cc1,-7.4%
18,CN(C)S(=O)(=O)N=C1C=CC(=NS(=O)(=O)N(C)C)C=C1,12.2%
19,COC(=O)C1=NNC2C(=O)N(c3ccc(Cl)cc3)C(=O)C12 (stereo unspecified),-5.1%
20,CCCOC(=O)c1c(N)sc2c1CCC2,6.2%
21,CCOc1cc(C(=O)Nc2sc(C(=O)N(CC)CC)c(C)c2C(=O)OC(C)C)cc(OCC)c1OCC,5.2%
22,O=C1N/C(=N/N=C/c2ccco2)SC1Cc1ccc(Cl)cc1Cl (stereo unspecified),3.9%
23,Cc1ccc(C)c(Nc2nc3ccccc3c3ccccc23)c1,2.2%

row,SMILES,displacement
1,CCOC(=O)C(=O)NCc1ccc(Cl)cc1,11.2%
2,Nc1ncnc(Nc2ccc3ccccc3c2)c1[N+](=O)[O-],17%
3,Cc1[nH]n(-c2ccccc2)c(=O)c1/C=N/NC(=O)CSCc1ccc(Cl)cc1,-19.5%
4,O=C1C(Nc2ccc(F)cc2)=CC(c2ccc([N+](=O)[O-])cc2)N1c1ccc(F)cc1 (stereo unspecified),-0.8%
5,COC(=O)c1ccc2c(c1)C1C=CCC1C(c1ccc([N+](=O)[O-])cc1)N2 (stereo unspecified),-4.6%
6,N#C/C(=C/c1cn(CC(=O)O)c2ccccc12)C(=O)Nc1cccc(Br)c1,-3.6%
7,NC(=S)NNC(=O)COc1ccccc1,-4%
8,O=[N+]([O-])c1cc(-c2nnc(-c3ccc(Cl)c([N+](=O)[O-])c3)o2)ccc1Cl,6.8%
9,COc1ccc(/C=C(\NC(=O)c2ccccc2)C(=O)NCC(C)C)cc1OC,11.2%
10,COc1ccc(-c2cc(=O)c3ccccc3o2)cc1,12.2%
11,Cc1ccccc1NC(=O)CCC(=O)N/N=C/c1cccs1,3.9%
12,CCCc1[nH]nc2c1C(c1ccccc1Br)C(C#N)=C(N)O2 (stereo unspecified),2.8%
13,N#C/C(=C\c1ccc(-c2ccccc2)o1)C(=O)N1CCCCCC1,-52.8%
14,COc1ccc(N2C(=O)C3C4C=CC(C4=C(C)C)C3C2=O)c([N+](=O)[O-])c1 (stereo unspecified),11.2%
15,O=C(CCC1CCCCC1)Nc1ccc(S(=O)(=O)Nc2nccs2)cc1,-7.2%
16,O=C(NCCNc1ccc([N+](=O)[O-])cc1Cl)c1cccc(Br)c1,10.8%
17,O=C(Nc1cccc(Cl)c1)c1ccc(CN2CCN(c3ccccc3)CC2)cc1,14%
18,CC(=O)NC1=NN(C(C)=O)C(c2ccc(F)cc2)S1 (stereo unspecified),-9%
19,CCOC(=O)CNC(=O)C12CC3CC(C1)CC(c1ccc(C)cc1)(C3)C2,-3.4%
20,COc1ccc(NC(=S)NC(=O)/C=C/c2ccc([N+](=O)[O-])cc2)cc1,29%
21,Cc1ccc(/C(N)=N/OC(=O)CCc2ccccc2)cc1,5%
22,COc1cc(/C=C(/NC(=O)c2ccccc2)C(=O)NN)cc(OC)c1OC,-4.8%
23,OC1CCNC(=S)N1c1ccccc1 (stereo unspecified),13.6%

row,SMILES,displacement
1,O=C1CC(c2ccccc2)CC(O)=C1C=NCc1ccc(F)cc1 (stereo unspecified),10.7%
2,CCC(=O)NC(c1ccccc1Cl)c1c(OC(C)=O)ccc2ccccc12 (stereo unspecified),-5.8%
3,CC1CCCC(C)N1C(=O)c1ccc(I)cc1 (stereo unspecified),2.2%
4,O=C(COc1ccccc1[N+](=O)[O-])Nc1ccc(N2CCOCC2)c(Cl)c1,12.3%
5,CC(=O)Nc1cccc(NC(=O)c2cccc(I)c2)c1,-1.5%
6,COc1ccc(NC(=O)Nc2ccc(Cl)c(Cl)c2)cc1,-4.4%
7,O=C(c1nn2c(c1Cl)NC(c1ccccc1)CC2C(F)(F)F)N1CCN(c2ccc(F)cc2)CC1 (stereo unspecified),10%
8,CCOC(=O)c1c(-c2ccc(Br)cc2)csc1NC(=S)NC(C)=O,7%
9,COc1ccc(C2Nc3ccccc3C(=O)N2Cc2ccco2)cc1Cn1cc([N+](=O)[O-])cn1 (stereo unspecified),15.2%
10,Cn1ncc(Cl)c1C(=O)N(C(=O)c1c(Cl)cnn1C)c1ncccn1,-53.3%
11,COc1ccc(Cl)cc1C(=O)Nc1cccc(Br)c1,14.5%
12,COc1cc(OC)c(OC)cc1CN1CCN(C(=O)c2cccs2)CC1,-9.9%
13,O=C(N=Nc1c(O)[nH]c(=O)[nH]c1=O)c1ccc2c(c1)OCO2,49.9%
14,COC(=O)c1ccccc1NS(=O)(=O)c1cccs1,0.8%
15,Cc1ccc(NC(=O)/C=C/c2ccccc2)c([N+](=O)[O-])c1,2.8%
16,CSc1nnc(-c2ccc(C)cc2)o1,11.4%
17,CC(C)c1ccc(NC(=O)c2cccnc2)cc1,7.4%
18,O=C(CSc1nc2sc3c(c2c(=O)[nH]1)CCCC3)N1CCCC1,-4.9%
19,Cc1ccc2c(c1)c1c3n2CCN(CCC(=O)O)C3CCC1 (stereo unspecified),12.2%
